Experimental data published in the supplement of paper PMC11417369.
The other results are listed elsewhere or left out.

system: PfSIP2 AP2 domain 1 (GST-tagged); test: gcPBM binding intensity (ln(normalized median fluorescence intensity)); higher = stronger DNA binding
Summary of the method: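 GST-tagged P. falciparum DNA-binding domains produced in E. coli were incubated for 1 h on an Agilent 4 × 180k array of primer-extended double-stranded 36-bp intergenic genomic probes with negative controls. Binding intensity is the highest Masliner-normalised natural-log median intensity across replicate spots of either probe orientation, with bound protein detected by Alexa488 anti-GST antibody at 488 nm.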

Point of comparison: “TATGTATATATATATATATATATATATATATATATA [TGCATGCA_negctrl_site491]”, “gcPBM binding intensity (ln)” value 8.85. Against it:
- AAAGAATCAAGAATAGTGCAAATATGTATAACCTTT — lower, 8.08
- ATAAAATAATGAAAAACACACATTTTTATTTGTATA [CACACA_site3369] — lower, 6.77
- ATATATATATATGAATCACACACAAAAAATATAGAG [CACACA_site9298] — higher, 9.33
- AATAACATGTTATATACACACATTATGAAGTCTTCA [CACACA_site746] — lower, 6.74
- ATTGTTTTTTTTTCTTTGTGGAATGAATGAATATAT [XGTACX_negctrl_site603] — lower, 7.3
- AAGATTATAAATATATGTACATAAATATATTATATA [XGTACX_site8056] — lower, 7.01
- AATATAAATAATATATGTACATATATATATATATAT [XGTACX_site1021] — higher, 9.01
- AAAGTATTCTTTACACGTACATATATATAAATATAA [XGTACX_site7557] — lower, 7.12
- AGAATTGTTGTTAAAGAATTCTTTTTTATCCTTCCC [CACACA_negctrl_site1820] — lower, 6.89
- TTTGTATATATTAATGTACACACATGCGTATGTTCG [CACACA_site9193] — lower, 6.94
- AATATAGATATAAAAAGTACATTATATATATATATA [XGTACX_site6899] — higher, 9.34
- TATACATACCATAATGCATGTAAGAACAAATAACTG [TGCATGCA_site264] — lower, 7.08
- ATGACTCTCAAGTTTGCACACATTTATATTTTTTAA [CACACA_site2605] — lower, 7.35
- ATGGCCACTGTGAAATGTACAAAAAAAAAATACAAT [XGTACX_site2874] — lower, 6.84
- CATACAAATTAATATGTACACACAAATATATATATA [CACACA_site8605] — higher, 9.21
- AGTAGTCTGGAGAAAAGTACATAGTATCTGGTAACC [XGTACX_site2024] — lower, 6.95
- TTTTTTTTTTTTTTTTGTACATATTTTAATTTGTTT [XGTACX_site6297] — lower, 6.95
- TTCCAAAATTGCACATGTACAAAATTCTCCAATATG [XGTACX_site3419] — lower, 7.16
- TTTATATTATTTAATGAGAAATAATTATAAACAATT [TGCATGCA_negctrl_site65] — lower, 6.8
- AAAAAAAAAAAATAATGTACATATGTATTTGAGAAA [XGTACX_site3572] — lower, 6.88
- TTGCCCATTTAATTAACACACAAATATTTATATTCT [CACACA_site738] — lower, 7.37
- GTTAAATAATATATATGTACATACATAAGTGTTACT [XGTACX_site4778] — lower, 7.16
- ATTTCCTTTTGTTTCAGTACATAATTTTTTTTTTTT [XGTACX_site4842] — lower, 7.08
- GATATTCATAGAAACACACATACAAATTATGTATAT [CACACA_site144] — lower, 6.92
- TAATTGTACGCCAATACACACAGAATTAAAATGTAG [CACACA_site4234] — lower, 7.14
- TTTTTAAAGTTTTATACACACACCAAAATTATTCTA [CACACA_site600] — lower, 7
- TATGTGCACCCATGTACATGCGGACATATGTTATAT [TGCATGCA_site383] — higher, 12
- ATATATTATATATATTGTACATGTAAAATTTTAAAA [XGTACX_site7197] — lower, 7.3
- AAAAATTTGGCATACACACACACACCCACACCCACA [CACACA_site587] — lower, 7.07
- TATGTATTTAAATTAACACACATATGTGGTTAATAG [CACACA_site5697] — lower, 6.82
- ACATATATATATATATATATATATATATCATTATGT [CACACA_negctrl_site724] — lower, 7.9
- ACTCTTGATCTGAATGCACACAATAAATTATATAAA [CACACA_site1438] — lower, 7.81
- AGTATAATAATATTTACACACGCATATGTTATATAT [CACACA_site1476] — lower, 6.99
- TCTAAAAATAAGAACACACACATATAAGCATATAAA [CACACA_site2274] — lower, 6.84
- AAAACGCTACATAATTGTACATGTAGAAATAAAAGC [XGTACX_site2895] — lower, 7.4
- TACTGCCTTCCATACCCACACACTTCCCATATATTT [CACACA_site2705] — lower, 7.58
- ATTTAAAAAAAAAAAACACACATGTGAATAGAAAAG [CACACA_site3323] — lower, 7.06
- ATATTTAAATAATATTCACACACAAAATTATATTTT [CACACA_site7955] — lower, 6.94
- CATATAAAAATATATGCACACAAATAAAAAATTATA [CACACA_site9210] — lower, 7.29
- ATTTCTCAATCGTAATGTACAAAAAAAAGGGAAAAG [XGTACX_site2781] — lower, 7.17
- ACAAACAAAGAAAGAACACACATACACAATATACCT [CACACA_site5566] — lower, 6.95
- ATAAATATAATAATCATACACACCAAAGAGAATATT [CACACA_site1888] — lower, 6.98
- AAAGTTATTATGCAATAATTATGATAATTAATATAT [TGCATGCA_negctrl_site316] — lower, 7.04
- ATGACTTACATATATAGTACTTTGTTTTGGAGTTGC [XGTACX_site94] — lower, 7.01
- TATGAGGAAACGTGGTGTACTTTTTTTTAATAAAAA [XGTACX_site1351] — lower, 7.16
- AAAAAAAAAAAGTTTACACACATTAATTTTACATAT [CACACA_site834] — lower, 6.91
- AAAAAAATACCATTCACACATATTCTTTTATTATTT [CACACA_site5113] — lower, 6.95
- ATTAAAAAGACAAAAAAAAAATTTTTTTTTTTTTTT [CACACA_negctrl_site1027] — lower, 6.99
- TAATAATACCCTTGCTGTACCAAATAAAGTTGAATA [XGTACX_site6922] — lower, 7.01
- AAATCAACGATCTATACATGCATATAATATATACAT [TGCATGCA_site25] — lower, 6.78
- GTAGCAATAAACATATGTACATATATATATTTTTTC [XGTACX_site5814] — lower, 7.13
- TTTCATAACAAAAAAGTGCAAAATAGCACGAACATT [GTGCAC_site9703] — lower, 8.82
- AGAAAAAGGAGAAAAAGTACAAAACGGAGTAGTATT [XGTACX_site3858] — lower, 6.87
- AAAAATTATATACATCATAGAATTAACATTTTAAAT [GTGCAC_negctrl_site369] — lower, 6.72
- AATTATTTACCCTATACACACAAAACAGACTAAAAA [CACACA_site6688] — lower, 7.21
- ATATTAATTCGTTTTGTACACACATAATGAATAATT [CACACA_site8701] — lower, 6.94
- ATAAAAATCATGTTGGTGCGAAATTTTATTATCAGA [GTGCAC_site9735] — lower, 8.73
- TTATGTATAAACACACGTACACACACTAAGTATATC [XGTACX_site3254] — lower, 7.13
- AAGGTATGATTAATCACACACATAAATATATATACA [CACACA_site2658] — lower, 6.86
- ACACATACACATTAGGTGCATATATTTCAATATTAC [GTGCAC_site9423] — higher, 10.3
- TTTAAAAAGATATATACACACATATAAATAAATATA [CACACA_site6436] — lower, 6.92
- CCACGTATAATATGTACACACACATATATACAAAAA [CACACA_site8208] — lower, 7.43
- AGCCTCGGGGTCATATATATATATATATATATATAT [CACACA_negctrl_site512] — higher, 9.56
- ATTATATTTTTAAGTACACACATATATATATATATA [CACACA_site5925] — higher, 9.47
- ATAAAAGGAAGAAAATGTACATATAATTATATGCAT [XGTACX_site8421] — lower, 6.85
- TTTTTCTATAAAAAAAAAAAAAAAAAATATATATAT [TGCATGCA_negctrl_site535] — lower, 8.41
- TTGTATATTTTATGTACACACAATAAGTTAATATAA [CACACA_site4655] — lower, 7.29
- AAAATAATGTATATATGTACATATAAATATATATAT [XGTACX_site8081] — lower, 8.42
- TATTATTGCATATTTACACACGTACTAATTTAAACA [CACACA_site970] — lower, 7.54
- TTTTACAAATATAATGGGTGAGCTATCAAAATAAAT [GTGCAC_negctrl_site91] — lower, 6.93
- TGTATACTATTAAATTGTACACATAAGAAATATTAT [XGTACX_site5839] — lower, 7.03
- ATGTTTTTAAAAAATTGTACATAATATTTTTTATAA [XGTACX_site7692] — lower, 7.04
- TATATATATATATATATAATACGAATTTGTAGTACA [TGCATGCA_negctrl_site224] — higher, 9.65
- TTATTTTAATAACCTACACACATTTTGTATATTTTA [CACACA_site4000] — lower, 6.81
- AAATGATGGAAAAAATAAATTTTTGTACAAAAATTA [CACACA_negctrl_site814] — lower, 6.75
- TTATAAATATTCTTGGGTACTTAAGATGATATGTAA [XGTACX_site5496] — lower, 7.15
- TGATACTTTTTTTGTAGTACTCCTAAAATTATAAAA [XGTACX_site4340] — lower, 7.06
- TTTTTTTTATTTTAATGTACATTTTTTATTTGTTAT [XGTACX_site7189] — lower, 7.23
- ATATATATATTATTTCGTACATAATTATTTGCCTTA [XGTACX_site350] — lower, 8.79
- AAAAAAAAAAAAAATTGTACAAAAAAAATAAATAAA [XGTACX_site6816] — lower, 6.99
- AAAAAAAAAAAAGAAACACACATATTTATATTTATA [CACACA_site6213] — lower, 7.03
- TTTTTTTTGTGGTGTCGTACATATGTTTGTTTTAAG [XGTACX_site1759] — lower, 7.23
- ATTATGCTACAAGGAGAACACACAATTGCCACTTTT [CACACA_site8673] — lower, 6.97
- ACATATATATATATATATATATATATATAATATTTA [CACACA_negctrl_site633] — lower, 7.87
- CCACGAGAATATATAGTGCATAATAATTTTTTTTTG — lower, 8.71
- GGTGATAATAAGCATACACACACACCCAAAAAAAAA [CACACA_site8137] — lower, 7.12
- AAAAAAAAAAAGAAAGCACACAATACATATGTATAA [CACACA_site1137] — lower, 6.83
